Assay results: PubChem BioAssay AID485297 (National Center for Advancing Translational Sciences (NCATS), 2010)
Out of some 320,000 compounds screened, about 9,100 (2.8%) were called active. The shares of active, inactive and inconclusive entries below differ from those in the screen. Calls come from the whole dose curve; as a rule, active = well fitted activation curve with a large enough effect; inconclusive = small, poorly fitted or top-dose-only effect; inactive = no such curve, though single readings can be large or run the other way. Where the call is inconclusive, the potency comes from a doubtful curve fit.

Experiment: qHTS Assay for Rab9 Promoter Activators; note: nearly all actives have a fitted effect of over 60% in size; for activation, negative = inhibition: % of control where 0% means no effect
Conditions: Huh7 Rab9 promoter-luciferase reporter, luminescence, 24 h; series mostly up to 9.22 µM; activation, negative = inhibition: at the top concentration
In short: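 Promoter activation is measured as luciferase luminescence in Huh7 cells stably transfected with a Rab9 promoter–luciferase construct, following 24 h compound exposure at 37 °C and 10 min reagent incubation at ambient temperature.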
Potency is the fitted concentration of half-maximal effect; tags give direction and shape of the fitted curve.

Potency, inconclusive:
COc1cccc(-c2nnn(C/C(N)=N/O)n2)c1 2 µM [activator, partial curve]
CC(=O)N1CCN(c2ccc(NC(=O)c3ccco3)cc2)CC1 2.24 µM [activator, partial curve]
CCOc1ccc(N/C(C)=C/C(=O)c2ccc(C)o2)cc1 3.98 µM [activator, partial curve]
CN(C)c1ccc(/C=N/NC(=O)c2ccc3c(c2)OCO3)cc1 1.78 µM [activator, partial curve]
O=C1CC(c2ccc(O)cc2)Oc2ccccc21 (configuration not stated) 3.98 µM [activator, single point]
Cc1nn(-c2ccccc2)c(C)c1C(=O)Oc1ccccc1 4.47 µM [activator, partial curve]
Cc1ccc(C(=O)Nc2ccn(Cc3ccc(F)cc3)n2)o1 3.55 µM [activator, partial curve]
CCN(CC)c1ccc(NC(=S)NCC2CCCO2)cc1 (configuration not stated) 1.78 µM [activator, partial curve]
CC(NC(=O)c1sc2ccccc2c1Cl)C1CCCO1 (configuration not stated) 2.82 µM [activator, partial curve]
C=CCNC(=S)NC(=O)c1ccc(C)c(Br)c1 6.31 µM [activator, single point]
Cc1ncccc1C(=O)N1CCCC(C(=O)c2ccc3c4c(cccc24)CC3)C1 (configuration not stated) 5.62 µM [activator, single point]
CCN(CC)C(=O)c1cccc(NC(=O)c2ccccc2OCc2c(C)noc2C)c1 3.98 µM [activator, single point]
COc1cccc2cc(-c3ccnc(N)n3)oc12 6.31 µM [activator, single point]

Potency, active:
Cc1ccc(COc2ccc3c(c2)OCO3)cc1 3.98 µM
COC(=O)c1ccc(COc2ccc(C(C)(C)C)cc2)o1 0.355 µM
COc1cc(SC)ccc1C(=O)Nc1cccc(C)n1 2 µM
COc1cccc(C(=O)Nc2cc3c(cc2Br)OCCCO3)c1 2.82 µM

activation, negative = inhibition, inactive:
CCc1nnc(SC(C)C(=O)Nc2nccs2)n1C (configuration not stated) 0.662%
O=C1c2ccccc2N2C(=O)c3ccccc3[C@H]2N1c1ccccc1 1.39%
O=C(C(Sc1ccccc1)c1ccccc1)N1CCN(c2ccccc2F)CC1 (configuration not stated) -1.11%
CC12CCC(=O)N1C(C(=O)Nc1cc(S(=O)(=O)N3CCCCCC3)ccc1OCC(F)(F)F)CS2 (configuration not stated) -3.33%
CCC1CCC(C(=O)NC(C(=O)NCCN2CCOCC2)C(C)C)CC1 (configuration not stated) -1.71%
